# About 100 (0.036%) of roughly 280,000 compounds were called active. Inconclusive means that the source gave no clear call. Such entries were picked first, then a sample of the others. Calls follow the shape of the dose curve; as a rule, active = well fitted inhibition curve with a large enough effect in the signal ratio, with a control signal flat (not every such curve was filed as active); inconclusive = small, poorly fitted or top-dose-only effect, or effect the other way, or a change in a side signal; inactive = no such curve, though single readings can be large or run the other way; the % refers to the signal ratio. A potency beside an inconclusive call is a rough fit, not a confirmed value. A note “side channel” means that the fit belongs to a control or component signal, not to the main read-out.
# Molecular target: Muscleblind-like protein 1 (Homo sapiens) (UniProt Q9NR56)
# Chain of UniProt Q9NR56 (Q9NR56 whole entry, looked up): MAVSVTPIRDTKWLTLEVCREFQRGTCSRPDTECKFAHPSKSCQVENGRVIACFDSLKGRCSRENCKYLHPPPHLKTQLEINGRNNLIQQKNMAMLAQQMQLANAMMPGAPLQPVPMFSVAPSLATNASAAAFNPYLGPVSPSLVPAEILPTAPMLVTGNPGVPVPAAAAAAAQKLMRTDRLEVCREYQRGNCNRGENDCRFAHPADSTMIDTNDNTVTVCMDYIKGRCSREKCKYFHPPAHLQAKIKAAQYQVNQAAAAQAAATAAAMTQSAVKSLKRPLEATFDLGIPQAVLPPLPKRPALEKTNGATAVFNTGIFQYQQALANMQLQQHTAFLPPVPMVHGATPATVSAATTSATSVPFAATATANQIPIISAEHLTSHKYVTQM
# Assay: qHTS Assay for Inhibitors of MBNL1-poly(CUG) RNA binding
# Conditions: TR-FRET MBNL1-His/biotin-(CUG)12 binding, 665/545 ratio; series mostly up to 57.5 µM
# How it was run: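 His-tagged MBNL1 binding to biotinylated (CUG)12 RNA was measured by TR-FRET using terbium anti-His antibody (0.055 ng/ul final) and streptavidin-XL665 (5 nM final). Compounds were titrated 92 nM to 58 uM; 60 min at room temperature.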
# Potency is read from the fitted curve at half-maximal effect; tags tell the direction and shape of the fitted curve or compound fluorescence and quenching.
row,Structure (SMILES),Potency
1,Cn1c2ccccc2c2nnc(SCCN3CCOCC3)nc21,"inconclusive: 25.1 µM [quencher, side channel, partial curve]"
2,CN1C(=O)c2cccc3c(S(=O)(=O)N(C)C)ccc1c23,"inconclusive: 14.1 µM [quencher, side channel, partial curve]"
3,COc1cc(NC(=O)c2sc3nc(C)nc(N4CCOCC4)c3c2C)cc(OC)c1OC,"inconclusive: 22.4 µM [quencher, side channel, single point]"
4,CCOC(=O)CSc1nc2ccccc2n2c(C)nnc12,"inconclusive: 15.8 µM [quencher, side channel, partial curve]"
5,COc1ccc2cc3cc(C(=O)NC4CC4)sc3nc2c1,"inconclusive: 39.8 µM [quencher, side channel, single point]"
6,O=C(Nc1ccccc1N1CCN(C(=O)c2ccc(Cl)cc2)CC1)c1ccc([N+](=O)[O-])o1,"inconclusive: 8.91 µM [quencher, side channel, partial curve]"
7,COc1ccc(S(=O)(=O)Nc2cc(SCC(=O)O)c(O)c3ccccc23)cc1,"inconclusive: 31.6 µM [quencher, side channel, single point]"
8,COc1ccc(C2C3=C(CC(C)(C)CC3=O)Oc3ncn(Cc4ccccc4)c(=N)c32)cc1 (stereo not drawn),"inconclusive: 79.4 µM [inhibitor, single point]"
9,CC1(C)CC(=O)C(N=Nc2cc(C(F)(F)F)ccc2Cl)=C(O)C1,"inconclusive: 3.55 µM [quencher, side channel, full curve, poor fit]"
10,Cc1nc2ccccc2c2c1C(=O)NC2=O,"inconclusive: 10 µM [quencher, partial curve]"
11,CC(OC(=O)c1ccc(S(=O)(=O)N(C)c2ccccc2)cc1)C(=O)NCCC1=CCCCC1 (stereo not drawn),"inconclusive: 6.31 µM [quencher, side channel, single point]"
12,CCN(CC)CCn1c(O)c(N=O)c2ccccc21,"inconclusive: 35.5 µM [quencher, side channel, single point]"
13,CN1C(=O)/C(=C/c2ccc(O)c([N+](=O)[O-])c2)NC1=S,"inconclusive: 14.1 µM [quencher, side channel, partial curve]"
14,COc1ccc(/C=N/OCC(=O)Nc2cc(C)on2)cc1OC,inactive
15,O=C1/C(=C/c2cccnc2)Oc2cc(OS(=O)(=O)c3ccccc3)ccc21,"inconclusive: 31.6 µM [quencher, side channel, single point]"
16,CCOC(=O)c1sc2ncc([N+](=O)[O-])cc2c1N,"inconclusive: 7.08 µM [quencher, side channel, partial curve]"
17,O=C(N/N=C/c1cc([N+](=O)[O-])ccc1O)C(O)(c1ccccc1)c1ccccc1,"inconclusive: 11.2 µM [quencher, side channel, partial curve]"
18,CCc1nc(SCC(N)=O)c2c(=O)n(C)c(=O)n(C)c2n1,"inconclusive: 3.16 µM [quencher, side channel, single point]"
19,CC(=O)N1N=C(c2cccc([N+](=O)[O-])c2)OC1(C)CC(=O)Nc1ccccc1 (stereo not drawn),"inconclusive: 22.4 µM [quencher, side channel, partial curve]"
20,COC(=O)CCC(=O)OC1(C)C(=O)C=C2C=C(C3CC3)N(CCc3ccccn3)C=C2C1=O (stereo not drawn),"inconclusive: 20 µM [quencher, side channel, partial curve]"

row,Structure (SMILES),Potency
1,CC(C)(C)NC(=O)CCN(/N=C/c1ccncc1)C1=NS(=O)(=O)c2ccccc21,"inconclusive: 25.1 µM [quencher, side channel, partial curve]"
2,COc1ccc(C(=O)Nc2cc(C(C)=O)c(C)oc2=O)cc1,"inconclusive: 39.8 µM [quencher, side channel, single point]"
3,Cc1ccc(C(=O)Oc2ccccc2C(=O)N2CCOCC2)cc1,"inconclusive: 7.08 µM [quencher, side channel, single point]"
4,CCc1ccccc1N(CC(=O)NCc1ccco1)C(=O)c1snc(C(N)=O)c1N,"inconclusive: 22.4 µM [quencher, side channel, single point]"
5,O=C(N/N=C/c1ccc(Cl)s1)C(O)c1ccccc1 (stereo not drawn),"inconclusive: 15.8 µM [quencher, side channel, partial curve]"
6,Cc1cc(NC(=O)c2ccc([N+](=O)[O-])o2)ccc1NC(=O)c1ccco1,"inconclusive: 10 µM [quencher, side channel, partial curve]"
7,COc1ccccc1NC(=O)c1cc(OC)c(OC)cc1[N+](=O)[O-],"inconclusive: 20 µM [quencher, side channel, partial curve]"
8,N#Cc1c(C(F)(F)F)cc(-c2ccc(Cl)cc2)[nH]c1=O,"inconclusive: 3.98 µM [quencher, side channel, single point]"
9,CC(=O)NCCNc1nc2c(-c3cccc(C(F)(F)F)c3)nnn2c2ccccc12,"inconclusive: 6.31 µM [fluorescent, side channel, single point]"
10,Cc1ccc2nc3c(cc(C(=O)NCCc4ccccc4)c(=N)n3CCN3CCOCC3)c(=O)n2c1,"inconclusive: 3.55 µM [quencher, side channel, full curve]"
11,COc1ccc(C(=O)Nc2ccc(N3CCCC3)cc2)cc1,"inconclusive: 39.8 µM [quencher, single point]"
12,COc1ccc(C2COC(=O)C2=N)c(NC(=O)c2ccc(Cl)cc2)c1 (stereo not drawn),"inconclusive: 1.78 µM [quencher, side channel, full curve, poor fit]"
13,CCCc1cc(=O)oc2c3c(cc(OCC(=O)N[C@@H](C)C(=O)O)c12)OC(C)(C)CC3,inactive
14,CCOC(=O)C1CCCN(C(=O)Cn2nc(C)n3c(cc4c(OC)cccc43)c2=O)C1 (stereo not drawn),"inconclusive: 31.6 µM [quencher, single point]"
15,COc1ccc(C(=O)N2N=C(c3cccs3)CC2c2ccccc2O)cc1 (stereo not drawn),"inconclusive: 14.1 µM [quencher, side channel, partial curve]"
16,N#Cc1c(SCC(N)=O)nc(-c2ccccc2)c2c1CCCC2,inactive
17,Cc1ccc(C(=O)c2cc(C)sc2NC(=O)CN2CCN(C(=O)c3ccco3)CC2)cc1,"inconclusive: 17.8 µM [quencher, side channel, single point]"
18,Cc1ccc(NC(=O)C(C)c2ccc(-c3ccccc3)c(F)c2)cc1 (stereo not drawn),inactive
19,Cc1ccc(-c2nc3ccccc3s2)cc1S(=O)(=O)N1CCOCC1,inactive
20,COc1ccc2c(Cl)c(C(=O)N/N=C3\CCCC(=O)C3)sc2c1,"inconclusive: 17.8 µM [quencher, side channel, single point]"

row,Structure (SMILES),Potency
1,COC(=O)CN1C(=O)N/C(=C/c2ccc(C)o2)C1=O,"inconclusive: 31.6 µM [quencher, side channel, single point]"
2,Nn1c(C2CCC2)nc2ccccc2c1=O,inactive
3,O=C(O)c1ccc(N/N=C/c2ccncc2)cc1,"inconclusive: 15.8 µM [quencher, side channel, partial curve]"
4,C/C(CC(=O)Nc1ccc(Cl)c(C(F)(F)F)c1)=N\NC(N)=S,inactive
5,Cc1ccc(C)c(-n2nnnc2Sc2nc([N+](=O)[O-])nn2C)c1,"inconclusive: 17.8 µM [quencher, side channel, partial curve]"
6,CN(C)c1cc(-c2ccc(C#N)cc2)oc(=O)c1Cl,"inconclusive: 3.16 µM [quencher, full curve, poor fit]"
7,Cc1cc(NC(=O)CSc2nnc(C3COc4ccccc4O3)n2N)no1 (stereo not drawn),"inconclusive: 28.2 µM [quencher, side channel, single point]"
8,O=C(CCCN1C(=O)c2cccnc2C1=O)Nc1ccc(Br)cc1,"inconclusive: 31.6 µM [quencher, side channel, single point]"
9,CCOC(=O)c1nn(-c2ccc(C)c(C)c2)c(=O)c2c(N)scc12,"inconclusive: 15.8 µM [quencher, side channel, partial curve]"
10,Cc1ccc2c(c1)COc1c3ccc(C(=O)NCCO)cc3nn1-2,"inconclusive: 15.8 µM [quencher, side channel, partial curve]"
11,C=CCNc1nc(-c2ccc([N+](=O)[O-])cc2)cs1,"inconclusive: 3.16 µM [quencher, partial curve, poor fit]"
12,CCCCn1c(=O)[nH]c(=O)c2c1nc(Cn1ncc(Cl)c(Cl)c1=O)n2CCC,inactive
13,O=C(O)c1cc([N+](=O)[O-])cc2c1C=Cc1ccccc1O2,"inconclusive: 22.4 µM [quencher, single point]"
14,COC(=O)CCCC1=CC2=CC(=O)C(C)(OC(=O)c3cccs3)C(=O)C2=CN1Cc1ccccc1 (stereo not drawn),"inconclusive: 12.6 µM [quencher, single point]"
15,CN(CCc1ccccn1)C(=O)CCC1CCCN(C(=O)c2ccc3c(c2)OCCO3)C1 (stereo not drawn),"inconclusive: 4.47 µM [inhibitor, full curve, poor fit]"
16,c1ccc2cc(-c3csnn3)ccc2c1,"inconclusive: 12.6 µM [quencher, side channel, partial curve, poor fit]"
17,O=C(O)c1c(N2CCCCC2)ccc([N+](=O)[O-])c1N1CCCCC1,"inconclusive: 158 µM [inhibitor, partial curve]"
18,NC(=S)N/N=C/C=C/c1ccccc1,"inconclusive: 1.41 µM [quencher, side channel, full curve]"
